# Data taken from PubChem BioAssay (Tox21).
# This list was built around the results that the source calls inconclusive (neither active nor inactive); the mix of calls is not that of the screen. Entries that show only a call come without a potency. Potencies beside an inconclusive call are fits to weak or partial responses and may not hold up. Calls of active or inactive are those of the source. The call rests on the fitted dose curve; in most records, active means well fitted curve in the direction sought with a large enough effect in the repeat runs; inconclusive means weak or mixed curves; inactive means no such curve, though single readings can be large; an effect the other way counts as inactive or inconclusive.
# Target: Voltage-gated inwardly rectifying potassium channel KCNH2 (Homo sapiens) (UniProt Q12809)
# Sequence of UniProt Q12809 (Q12809 whole entry, looked up): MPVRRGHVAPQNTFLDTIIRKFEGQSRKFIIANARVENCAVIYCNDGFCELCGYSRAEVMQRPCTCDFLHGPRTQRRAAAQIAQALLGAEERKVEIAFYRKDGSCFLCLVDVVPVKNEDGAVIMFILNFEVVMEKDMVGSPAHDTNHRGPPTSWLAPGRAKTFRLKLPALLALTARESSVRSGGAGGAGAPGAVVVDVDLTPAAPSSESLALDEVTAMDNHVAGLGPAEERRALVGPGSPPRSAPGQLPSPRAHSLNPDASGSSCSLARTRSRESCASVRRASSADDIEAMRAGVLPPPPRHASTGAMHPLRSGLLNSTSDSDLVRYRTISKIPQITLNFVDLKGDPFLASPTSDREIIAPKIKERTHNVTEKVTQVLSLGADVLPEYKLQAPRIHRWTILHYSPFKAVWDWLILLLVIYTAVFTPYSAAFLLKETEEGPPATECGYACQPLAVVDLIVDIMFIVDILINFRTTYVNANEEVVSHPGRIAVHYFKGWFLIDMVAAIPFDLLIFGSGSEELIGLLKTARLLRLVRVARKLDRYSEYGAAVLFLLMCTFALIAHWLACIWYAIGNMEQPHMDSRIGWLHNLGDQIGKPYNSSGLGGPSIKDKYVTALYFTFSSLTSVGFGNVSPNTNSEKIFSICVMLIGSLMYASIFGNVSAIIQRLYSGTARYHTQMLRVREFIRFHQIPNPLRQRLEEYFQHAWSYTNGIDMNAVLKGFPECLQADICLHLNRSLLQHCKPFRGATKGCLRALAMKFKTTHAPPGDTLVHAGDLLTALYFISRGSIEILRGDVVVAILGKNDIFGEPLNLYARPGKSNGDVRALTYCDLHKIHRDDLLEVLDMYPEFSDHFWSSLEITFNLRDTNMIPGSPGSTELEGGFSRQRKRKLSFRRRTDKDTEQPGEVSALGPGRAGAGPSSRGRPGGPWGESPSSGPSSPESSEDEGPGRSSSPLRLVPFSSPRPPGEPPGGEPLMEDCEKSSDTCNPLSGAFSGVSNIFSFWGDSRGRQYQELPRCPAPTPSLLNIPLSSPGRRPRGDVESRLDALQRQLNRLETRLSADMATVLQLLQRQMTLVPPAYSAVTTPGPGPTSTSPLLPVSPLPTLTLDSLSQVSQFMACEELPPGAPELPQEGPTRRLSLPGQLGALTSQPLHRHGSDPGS
# Experiment: Human Ether-a-go-go-Related Gene (hERG) channel small molecule antagonists: fluorescence cell-based qHTS assay (AID 1671200)
# Details: hERG-U2OS cells, FluxOR thallium flux fluorescence; series mostly up to 76.8 µM
# Outline: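 Measured: Tl+ flux via fluorescence (480/540 nm) in hERG-expressing U2OS cells after 1 h dye loading at room temperature.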
# Further: nearly all actives have a fitted effect of over 50% in size.
# Potency means the concentration at half of the fitted maximal effect; tags describe the fitted curve by direction and shape.
row,SMILES,Potency
1,C/C=C(\C)C(=O)OC/C=C(\C)CCC=C(C)C,inactive
2,C=CC(=O)OCCCC,inactive
3,CCCCCCOC(=O)c1ccccc1O,"inconclusive: 21.9 µM [inhibitor, partial curve]"
4,CN1C(CSCC(F)(F)F)Nc2cc(Cl)c(S(N)(=O)=O)cc2S1(=O)=O (configuration not stated),"inconclusive: 19 µM [inhibitor, partial curve, poor fit]"

# Target: Cytochrome P450 3A4 (Homo sapiens) (UniProt P08684)
# Sequence of UniProt P08684 (P08684 whole entry, looked up): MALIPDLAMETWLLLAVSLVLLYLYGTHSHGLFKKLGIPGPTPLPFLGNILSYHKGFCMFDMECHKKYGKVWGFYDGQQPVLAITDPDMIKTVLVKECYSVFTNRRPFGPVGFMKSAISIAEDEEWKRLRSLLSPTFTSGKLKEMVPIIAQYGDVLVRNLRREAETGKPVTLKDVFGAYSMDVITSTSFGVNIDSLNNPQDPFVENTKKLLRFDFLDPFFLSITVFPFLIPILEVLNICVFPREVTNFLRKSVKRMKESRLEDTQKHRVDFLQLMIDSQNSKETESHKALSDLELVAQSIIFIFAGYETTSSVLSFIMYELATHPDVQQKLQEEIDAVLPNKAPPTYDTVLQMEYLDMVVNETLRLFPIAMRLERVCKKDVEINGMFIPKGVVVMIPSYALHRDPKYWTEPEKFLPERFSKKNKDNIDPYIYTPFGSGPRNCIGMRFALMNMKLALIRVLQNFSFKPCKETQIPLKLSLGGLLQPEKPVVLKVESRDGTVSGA
# Experiment: Cytochrome P450 Family 3 Subfamily A Member 4 (CYP3A4) small molecule antagonists: luciferase reporter qHTS assay (AID 1671201)
# Details: P450-Glo CYP3A4 enzyme, luciferin luminescence, 1 h; series mostly up to 115 µM
# Outline: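 Setup: enzyme-substrate mix, compound pin transfer, 10 min RT. Reaction: NADPH regeneration solution, 1 h RT. Readout: detection reagent stops turnover, luminescence measured after 20 min, expressed in relative luminescence units.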
row,SMILES,Potency
1,COc1c(Cl)c(Cl)c(Cl)c(Cl)c1Cl,inactive
2,CN(C)CCCNCCCN(C)C,"inconclusive: 31.7 µM [inhibitor, single point]"
3,C(=C\c1ccccc1)/c1ccccc1,"inconclusive: 35.3 µM [inhibitor, partial curve, poor fit]"
4,CC(CCC(=O)O)C(=O)O (configuration not stated),inactive
5,C=CC(=O)[O-].C=CC(=O)[O-].[Zn+2],"inconclusive: 61.8 µM [inhibitor, partial curve]"
6,C/C=C(\C)C(=O)OC/C=C(\C)CCC=C(C)C,inactive
7,Cc1cccc(OCCOc2cccc(C)c2)c1,"inconclusive: 16.9 µM [inhibitor, full curve, poor fit]"
8,CCCc1ccc(OC)cc1,inactive
